Values marked as one replicate rest on one cluster of the flow cell; about a third of the high ones do not repeat.
Tested on: ATP
Experiment: switch fluorescence ratio, 500 uM ATP over buffer (Cy3 cluster intensity, sum of 5 cycles each) (fold (ratio)); higher = stronger signal-on switching upon ATP binding; sequences stand for … in TCGTCGGCAGCGTCAGATGTGTATAAGAGACAGTTTTTTTTTTTTTTTTTTTTTTTTT…TC
Conditions: aptamer strand: ATP DNA aptamer (quencher-CACCTGGGGGAGTATTGCGGAGGAAGG + anchor), 100 nM annealed; ATP concentration: 500 uM; one replicate
Summary of the method: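 The quencher-labelled ATP aptamer, at 100 nM, was annealed to Cy3-labelled switching-strand clusters on a modified Illumina MiSeq flow-cell. The clusters were imaged in selection buffer, then after 15 min with 500 uM ATP at 22 °C, and this buffer/ATP cycle ran five times with NaOH stripping and re-annealing between runs. Per-cluster fluorescence ratios, summed target-cycle over summed buffer-cycle Cy3 intensity, were averaged per switch-domain sequence. Clusters outside 100-1000 RFU were excluded.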
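Also: ATP exposure 15 min at 22 °C before imaging.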

In the case of ATGAGAGTCC, the switch fluorescence ratio is reported as 1.02.

CTTTGGGCCT was tested, and the switch fluorescence ratio was 1.43.

AACAGACTCT was tested, and the switch fluorescence ratio was 0.982.

Work on TCTGGTTTAG yielded a switch fluorescence ratio of 0.987.

Sequence TCCATACTCT has a switch fluorescence ratio of 1.09.

ATGGCCTGCG gave a switch fluorescence ratio of 1.03.

Sequence AAAATGCACG has a switch fluorescence ratio of 1.01.

In the case of AAATGAAA, the switch fluorescence ratio is reported as 1.03.

AGATCGATCG was tested, and the switch fluorescence ratio was 1.06.

AGGAAAGGTG showed a switch fluorescence ratio of 1.28.

AACTATATTT was tested, and the switch fluorescence ratio was 1.05.

CCCACGGGGA showed a switch fluorescence ratio of 1.03.

With ATGAGAGGCT the switch fluorescence ratio was 1.05.

With AGCAAAAAAG the switch fluorescence ratio was 0.937.

In the case of ATATGCGATT, the switch fluorescence ratio is reported as 1.

GGTGCGATG showed a switch fluorescence ratio of 0.975.

Work on TATACTCGCC yielded a switch fluorescence ratio of 1.75.

ATGCTAGTAA showed a switch fluorescence ratio of 0.982.

TGATTTGATT showed a switch fluorescence ratio of 1.01.

AGGAGACAGC showed a switch fluorescence ratio of 1.07.

Work on GATATTCATA yielded a switch fluorescence ratio of 0.974.

CTTTAGTTAG gave a switch fluorescence ratio of 0.979.

In the case of ATGCCGCGAT, the switch fluorescence ratio is reported as 1.08.

In the case of CTTTCA, the switch fluorescence ratio is reported as 1.01.

Sequence CGAGACGCCA has a switch fluorescence ratio of 1.13.

Sequence TAACGGGCGC has a switch fluorescence ratio of 1.04.

For GTGCGGGGGG, the switch fluorescence ratio was 1.03.

Sequence GGGTATGCGC has a switch fluorescence ratio of 0.953.

Sequence TCTTAGGAAA has a switch fluorescence ratio of 0.919.

CGACTATAAT gave a switch fluorescence ratio of 1.08.

CAATTACGT gave a switch fluorescence ratio of 1.1.

With TGGGGCGGAT the switch fluorescence ratio was 1.08.

In the case of AGTTCACTAC, the switch fluorescence ratio is reported as 1.03.

CGCTTCGATT was tested, and the switch fluorescence ratio was 0.967.

CTACGCCCAT gave a switch fluorescence ratio of 3.21.

For AGAATCGTGG, the switch fluorescence ratio was 1.01.

In the case of TAAACTGTAG, the switch fluorescence ratio is reported as 1.02.

GCCCGCGCGT was tested, and the switch fluorescence ratio was 1.05.

In the case of CATTGCGCAT, the switch fluorescence ratio is reported as 1.26.

With CGAGATACTG the switch fluorescence ratio was 1.13.

CGAATAGAGT gave a switch fluorescence ratio of 1.03.

In the case of CGTTTTACAT, the switch fluorescence ratio is reported as 1.

CCTGGCGAG showed a switch fluorescence ratio of 1.03.

TTTTTCAGT gave a switch fluorescence ratio of 0.975.

GCTTGGAGAA was tested, and the switch fluorescence ratio was 1.01.

Sequence TTGCGGAGTG has a switch fluorescence ratio of 1.02.

With TGGGCAGTTG the switch fluorescence ratio was 0.996.

For CGTACAGGAG, the switch fluorescence ratio was 1.

In the case of GAAGCTTATT, the switch fluorescence ratio is reported as 1.01.

AAACCCGTAG gave a switch fluorescence ratio of 1.05.

In the case of GAGGTAAG, the switch fluorescence ratio is reported as 1.04.

For GTGATCATCT, the switch fluorescence ratio was 1.01.

For AGATGGTAGC, the switch fluorescence ratio was 1.

With TTCGATTCAT the switch fluorescence ratio was 1.02.

TCCAGAATCG gave a switch fluorescence ratio of 0.965.

GGAACAGGTT gave a switch fluorescence ratio of 1.06.

Work on AATTGCGAGT yielded a switch fluorescence ratio of 0.978.

Sequence GATGCTGTCA has a switch fluorescence ratio of 1.03.

Work on CTAATGCAAT yielded a switch fluorescence ratio of 1.97.

With AGTATATGAG the switch fluorescence ratio was 1.02.

For AGTTATTATG, the switch fluorescence ratio was 0.995.

GACGAGTATC was tested, and the switch fluorescence ratio was 0.996.

In the case of GTCTTTCGCA, the switch fluorescence ratio is reported as 1.06.

GTATGTGGTG showed a switch fluorescence ratio of 1.01.

Sequence CACCTATACC has a switch fluorescence ratio of 1.18.

In the case of CCAGCGTTTT, the switch fluorescence ratio is reported as 1.01.

TATTAATACG showed a switch fluorescence ratio of 1.01.

For ATTTTCCGAG, the switch fluorescence ratio was 1.16.

For CGATACCGTT, the switch fluorescence ratio was 0.988.

For CTACTTTCCT, the switch fluorescence ratio was 1.3.

For TTGTCCTATT, the switch fluorescence ratio was 1.01.

For TATGAAGGGT, the switch fluorescence ratio was 0.991.

Work on CTGGGGGACT yielded a switch fluorescence ratio of 0.962.

CCGTTTCCAT gave a switch fluorescence ratio of 0.996.

GGCTGCACAG showed a switch fluorescence ratio of 1.02.

TCTGGTGTGA showed a switch fluorescence ratio of 0.978.

For TAAGCTGAGG, the switch fluorescence ratio was 1.05.

Sequence AGCCGTAATC has a switch fluorescence ratio of 1.24.

In the case of ATAGCCGCCT, the switch fluorescence ratio is reported as 1.05.

TATGACACTG was tested, and the switch fluorescence ratio was 0.983.

In the case of GGGGCGGTAG, the switch fluorescence ratio is reported as 1.02.

Work on CACCAGGGGA yielded a switch fluorescence ratio of 1.11.

For GCTAGGAGCC, the switch fluorescence ratio was 0.993.

TTTAGCGCCA gave a switch fluorescence ratio of 0.996.

For CCGGTAACGG, the switch fluorescence ratio was 0.968.

TCGTTTAGCT gave a switch fluorescence ratio of 1.01.

With TTAAATTTAA the switch fluorescence ratio was 1.03.

Work on TTCAAAATT yielded a switch fluorescence ratio of 0.99.

TCAACAGTAT showed a switch fluorescence ratio of 1.04.

Work on ACGGGCGAGG yielded a switch fluorescence ratio of 0.983.

CCGCACGGCC was tested, and the switch fluorescence ratio was 4.46.

For GCGCGCATGA, the switch fluorescence ratio was 0.983.

In the case of GTTGCAATTG, the switch fluorescence ratio is reported as 1.

With AAATACCACC the switch fluorescence ratio was 1.25.

ATTTCTGTAG was tested, and the switch fluorescence ratio was 1.03.

GATTGACAG showed a switch fluorescence ratio of 1.03.

Sequence CTCATGATTG has a switch fluorescence ratio of 0.993.

CGGGATCTTA was tested, and the switch fluorescence ratio was 0.958.

Work on CGGTCGTTCT yielded a switch fluorescence ratio of 0.895.

Work on GTTGGCGTGG yielded a switch fluorescence ratio of 1.

In the case of ATCTCTTTGT, the switch fluorescence ratio is reported as 0.997.

AACTAGGTCT was tested, and the switch fluorescence ratio was 0.997.

In the case of CCCGCCGT, the switch fluorescence ratio is reported as 1.09.

For AAATATGCGG, the switch fluorescence ratio was 0.954.

Work on CCAGCGAGTC yielded a switch fluorescence ratio of 1.43.

For TAGATCTTAG, the switch fluorescence ratio was 1.02.

GCGCCAGCGC gave a switch fluorescence ratio of 1.01.

For TATAGCTAGG, the switch fluorescence ratio was 1.03.

With ATGTGATGT the switch fluorescence ratio was 0.99.

With TTCGCAGGGC the switch fluorescence ratio was 3.

Sequence CCGATTTCGG has a switch fluorescence ratio of 1.01.

GCTCATTAT showed a switch fluorescence ratio of 0.985.

Sequence AACCCGGGGA has a switch fluorescence ratio of 1.02.

With TTACTTTGCA the switch fluorescence ratio was 1.07.

ATAGCTTGCA gave a switch fluorescence ratio of 0.99.

ACCGACTTTG gave a switch fluorescence ratio of 0.958.

GTTTCCAAGT showed a switch fluorescence ratio of 1.01.

Sequence ACGTTACATA has a switch fluorescence ratio of 1.39.

With CAACGGGAGA the switch fluorescence ratio was 1.04.

TAACTTTAA showed a switch fluorescence ratio of 1.02.

For CTACCCAGGA, the switch fluorescence ratio was 1.3.

With TCGGCGGTG the switch fluorescence ratio was 0.996.

CGGAAAGCTT was tested, and the switch fluorescence ratio was 1.09.

Work on GTCGGATATA yielded a switch fluorescence ratio of 0.94.

CTACATGCTC was tested, and the switch fluorescence ratio was 1.03.

Sequence AAATGTTGGG has a switch fluorescence ratio of 1.01.

With GGTAGAAGAT the switch fluorescence ratio was 0.974.

Sequence AACCCCCGTC has a switch fluorescence ratio of 1.08.

GGTGTTATCA was tested, and the switch fluorescence ratio was 0.964.

Sequence TCAGTGTTGC has a switch fluorescence ratio of 0.988.

TACTTGACCC showed a switch fluorescence ratio of 1.26.

CTCTATTTGT gave a switch fluorescence ratio of 1.01.

Sequence CTTCGTATAT has a switch fluorescence ratio of 1.77.

Work on CGTATGGGCC yielded a switch fluorescence ratio of 0.974.

Sequence CCGGAAGGTT has a switch fluorescence ratio of 1.05.

For GTAGATGGCT, the switch fluorescence ratio was 1.02.

Work on CATCAAACAT yielded a switch fluorescence ratio of 1.06.

Work on ACTTTTAAGC yielded a switch fluorescence ratio of 1.03.

Work on ACCATTGCAG yielded a switch fluorescence ratio of 0.978.

Sequence CGTTATGCCC has a switch fluorescence ratio of 0.997.

In the case of CGGCGCGGC, the switch fluorescence ratio is reported as 1.06.

With GATTTGTTGC the switch fluorescence ratio was 0.984.

Sequence GATTCAGAAG has a switch fluorescence ratio of 0.979.

GTAGGGTAAA gave a switch fluorescence ratio of 0.965.

Work on TTCATGTCTC yielded a switch fluorescence ratio of 0.986.

Work on AATATTCAGA yielded a switch fluorescence ratio of 1.34.

With CTGAGTACGA the switch fluorescence ratio was 0.994.

With TGAGAAAGCT the switch fluorescence ratio was 1.28.

GCCGTCATTA gave a switch fluorescence ratio of 1.01.

CACCCTACGC was tested, and the switch fluorescence ratio was 1.54.

With TGTTCAGTGT the switch fluorescence ratio was 1.

Sequence TAGTGAGCTT has a switch fluorescence ratio of 1.05.

Work on TACTTGCAC yielded a switch fluorescence ratio of 1.16.

CGAATCAAGT showed a switch fluorescence ratio of 1.03.

TCTTTGGTC showed a switch fluorescence ratio of 0.969.

In the case of TAAGTAGAAC, the switch fluorescence ratio is reported as 1.02.

Work on CAAGTAGCGG yielded a switch fluorescence ratio of 1.02.

For GGAGTCGCAT, the switch fluorescence ratio was 0.998.

In the case of GAATTGGCGA, the switch fluorescence ratio is reported as 1.02.

GCAGGAATAA showed a switch fluorescence ratio of 1.33.

Work on TCGGTATTCG yielded a switch fluorescence ratio of 0.943.

With GATACTGTAT the switch fluorescence ratio was 1.13.

In the case of CCGCTGGTCG, the switch fluorescence ratio is reported as 1.03.

CAGATATGTC was tested, and the switch fluorescence ratio was 0.997.

For CAAAATGAAA, the switch fluorescence ratio was 1.04.

Sequence AGCACGCAGC has a switch fluorescence ratio of 1.08.

For TGTCTGGCCG, the switch fluorescence ratio was 1.04.

Work on GCACTCTTTA yielded a switch fluorescence ratio of 1.02.

For GTGGATCTCA, the switch fluorescence ratio was 0.967.

For CATCGCGAGT, the switch fluorescence ratio was 1.09.

CGTTAAGTCC showed a switch fluorescence ratio of 1.12.

With TTGCTTCTTA the switch fluorescence ratio was 1.02.

CGCACGGAGT showed a switch fluorescence ratio of 0.977.

Sequence TCCTACGGTG has a switch fluorescence ratio of 1.82.

TCATCCAGAT showed a switch fluorescence ratio of 1.01.

In the case of CACCGTAAGA, the switch fluorescence ratio is reported as 1.68.

For CCGGGAGTAT, the switch fluorescence ratio was 1.3.

For ATCTGGTGCG, the switch fluorescence ratio was 1.05.

Work on TGGGGTATTC yielded a switch fluorescence ratio of 0.999.

In the case of TAGGACTTTG, the switch fluorescence ratio is reported as 1.02.

For TGTCACAGCA, the switch fluorescence ratio was 1.02.

With GTCGGAGCCC the switch fluorescence ratio was 0.963.

With CGAGTCATTT the switch fluorescence ratio was 1.01.

With TCATTGGTGG the switch fluorescence ratio was 1.02.

TCATGTGTAC gave a switch fluorescence ratio of 1.02.

GTATGTTTAC gave a switch fluorescence ratio of 1.01.

GCATTGCCTG showed a switch fluorescence ratio of 0.944.

Work on AGTTATTTAG yielded a switch fluorescence ratio of 0.971.

With CCAAGCCTGC the switch fluorescence ratio was 1.23.

Sequence CCGAGCACGA has a switch fluorescence ratio of 4.65.

CTACTATACA gave a switch fluorescence ratio of 1.35.

Work on TTTCTACCAA yielded a switch fluorescence ratio of 1.19.

Work on TTGGATGATT yielded a switch fluorescence ratio of 1.05.

TTTTAATAGG gave a switch fluorescence ratio of 1.01.

CGATTGGAGG gave a switch fluorescence ratio of 0.98.

Sequence GCCTAGGAGA has a switch fluorescence ratio of 1.04.

In the case of TTCGGAGTGT, the switch fluorescence ratio is reported as 0.995.

TCAACTGCAT was tested, and the switch fluorescence ratio was 1.15.

For CTATCCCTGT, the switch fluorescence ratio was 1.04.

GGTGGTCTGT gave a switch fluorescence ratio of 0.983.

Work on ATCGCAAGTT yielded a switch fluorescence ratio of 1.05.
